Test [1] relates to RAW-Dual. Briefly: IRF Lucia reporter activity, fold change vs agonist alone; cytotoxicity flag (confluency mask): not cytotoxic; higher = enhanced IRF activity. In outline:
(§1)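 Reporter activity is given as fold change relative to agonist-alone wells. To measure it, 50 nL of library stock was pin-tooled onto RAW-Dual macrophages (50,000 cells/well, DMEM, 384-well plates), a PRR agonist followed 1 h later, and cells stayed at 37 °C, 5% CO2. Twenty hours on, supernatant was assayed for IRF (QuantiLuc luminescence) and NF-κB (QuantiBlue, 620 nm absorbance), and wells under 70% of agonist-control IncuCyte confluency in both mask sets were marked cytotoxic.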

For test [2], the system named is RAW-Dual. The test can be described thus: IRF Lucia reporter activity, fold change vs agonist alone; higher = enhanced IRF activity. To be noted: agonist: MPLA (TLR4) […]. In outline:
as §1

Test [3] concerns RAW-Dual. The test can be described thus: IRF Lucia reporter activity, fold change vs agonist alone; cytotoxicity flag (confluency mask): cytotoxic (confluency <70% of control); higher = enhanced IRF activity. In short, it runs like this:
as §1

[4] abbreviates: agonist: 3'3'-cGAMP (STING) 10 ug/mL.
Where [5] appears, read: library stock concentration (final ~1000-fold dilution): 10 mM, cytotoxicity flag (confluency mask): not cytotoxic.

Over roughly 2,900 compounds, “IRF Lucia reporter activity, fold change vs agonist alone” has its median near 0.9; the highest 2% begin near 2.8. Some of the results follow.

In the case of `COc1cc(OC)c(OC)cc1C=O` (library stock concentration (final ~1000-fold dilution): 10 mM), the entries for the “IRF Lucia reporter activity” value in the test with RAW-Dual [1] (setting [4]) and in the test on RAW-Dual [1] (agonist: LPS (TLR4) 0.1 ug/mL) were 0.803 and 0.912, respectively.

As for `COc1cc(OC)c(OC)cc1C=O`, the “IRF Lucia reporter activity” value with RAW-Dual [2] (setting [5]) stood at 0.858.

For `COc1cc2c(cc1O)CC1c3c(cc(O)c(OC)c3-2)CCN1C` (centres undefined) (library stock concentration (final ~1000-fold dilution): 10 mM), the results for the “IRF Lucia reporter activity” value with RAW-Dual [1] (setting [4]) and in the test with RAW-Dual [1] (agonist: LPS (TLR4) 0.1 ug/mL) were 0.988 and 0.995, respectively. As for `Cc1sc2c(c1C)C(c1ccc(Cl)cc1)=NC(CC(=O)Nc1ccc(O)cc1)c1nnc(C)n1-2` (centres undefined), the “IRF Lucia reporter activity” value in the test with RAW-Dual [2] (setting [5]) was 0.141. As for `Cc1sc2c(c1C)C(c1ccc(Cl)cc1)=NC(CC(=O)Nc1ccc(O)cc1)c1nnc(C)n1-2` (centres undefined) (library stock concentration (final ~1000-fold dilution): 10 mM), the “IRF Lucia reporter activity” value in the test with RAW-Dual [1] (setting [4]) was determined as 0.216; in the test with RAW-Dual [1] (agonist: LPS (TLR4) 0.1 ug/mL), 0.0933. For the compound `Cc1sc2c(c1C)C(c1ccc(Cl)cc1)=NC(CC(N)=O)c1nnc(C)n1-2` (centres undefined) (library stock concentration (final ~1000-fold dilution): 10 mM), the “IRF Lucia reporter activity” value with RAW-Dual [1] (setting [4]) came to 0.216; with RAW-Dual [1] (agonist: LPS (TLR4) 0.1 ug/mL), 0.174.

As to `Cc1sc2c(c1C)C(c1ccc(Cl)cc1)=NC(CC(N)=O)c1nnc(C)n1-2` (centres undefined), the “IRF Lucia reporter activity” value with RAW-Dual [2] (setting [5]) amounted to 0.162. As for `O=C(CC1NCCCC1O)Cn1cnc2cc(Br)c(Cl)cc2c1=O` (centres undefined) (library stock concentration (final ~1000-fold dilution): 10 mM), the “IRF Lucia reporter activity” value in the test with RAW-Dual [3] (setting [4]) is 0.00797; in the test with RAW-Dual [3] (agonist: LPS (TLR4) 0.1 ug/mL), 0.00984. `O=c1[nH]c2ccccc2n1C1CCN(Cc2ccc(-c3nc4cc5nc[nH]c5cc4nc3-c3ccccc3)cc2)CC1` (library stock concentration (final ~1000-fold dilution): 10 mM): the “IRF Lucia reporter activity” value was determined as 0.513 in the test with RAW-Dual [1] (setting [4]) and 1.79 with RAW-Dual [1] (agonist: LPS (TLR4) 0.1 ug/mL). As to `CN(C)C(=O)Oc1cc(OC(=O)N(C)C)cc(C(O)CNC(C)(C)C)c1.Cl` (centres undefined), the “IRF Lucia reporter activity” value in the test with RAW-Dual [2] (setting [5]) stood at 1.12.

Turning to `CN(C)C(=O)Oc1cc(OC(=O)N(C)C)cc(C(O)CNC(C)(C)C)c1.Cl` (centres undefined) (library stock concentration (final ~1000-fold dilution): 10 mM), the “IRF Lucia reporter activity” value in the test on RAW-Dual [1] (setting [4]) amounted to 1.04; in the test with RAW-Dual [1] (agonist: LPS (TLR4) 0.1 ug/mL), 1.14. With `CCN(CC)CCOC(=O)C(O)(c1ccccc1)c1ccccc1.Cl`, the “IRF Lucia reporter activity” value in the test on RAW-Dual [2] (setting [5]) turned out to be 0.912.

`CCN(CC)CCOC(=O)C(O)(c1ccccc1)c1ccccc1.Cl` (library stock concentration (final ~1000-fold dilution): 10 mM): the figures for the “IRF Lucia reporter activity” value in the test on RAW-Dual [1] (setting [4]) and in the test on RAW-Dual [1] (agonist: LPS (TLR4) 0.1 ug/mL) were 1.24 and 0.827, respectively. For the compound `C=C(C)C1Cc2c(ccc3c2OC2COc4cc(OC)c(OC)cc4C2C3=O)O1` (centres undefined) (library stock concentration (final ~1000-fold dilution): 10 mM), the entries for the “IRF Lucia reporter activity” value with RAW-Dual [1] (setting [4]) and in the test on RAW-Dual [1] (agonist: LPS (TLR4) 0.1 ug/mL) were 0.248 and 1.54, respectively. Regarding `C=C(C)C1Cc2c(ccc3c2OC2COc4cc(OC)c(OC)cc4C2C3=O)O1` (centres undefined), in the test on RAW-Dual [2] (setting [5]), the “IRF Lucia reporter activity” value is 1.66. On to `Cn1c(CCCCCCC(=O)NO)nc2cc(N(CCCl)CCCl)ccc21` (library stock concentration (final ~1000-fold dilution): 10 mM), for which the “IRF Lucia reporter activity” value turned out to be 0.0439 in the test on RAW-Dual [3] (setting [4]) and 0.161 in the test on RAW-Dual [3] (agonist: LPS (TLR4) 0.1 ug/mL). Take `CCCCCc1cc(O)cc(O)c1` (library stock concentration (final ~1000-fold dilution): 10 mM): the “IRF Lucia reporter activity” value in the test on RAW-Dual [1] (setting [4]) was determined as 0.738; in the test on RAW-Dual [1] (agonist: LPS (TLR4) 0.1 ug/mL), 1.1. Take `CCCCCc1cc(O)cc(O)c1`: the “IRF Lucia reporter activity” value with RAW-Dual [2] (setting [5]) worked out at 1.23. For `COc1cc(C2c3cc4c(cc3C(O)C3COC(=O)C23)OCO4)cc(OC)c1O` (centres undefined), the “IRF Lucia reporter activity” value with RAW-Dual [2] (setting [5]) is 1.84. For the compound `COc1cc(C2c3cc4c(cc3C(O)C3COC(=O)C23)OCO4)cc(OC)c1O` (centres undefined) (library stock concentration (final ~1000-fold dilution): 10 mM), the “IRF Lucia reporter activity” value with RAW-Dual [1] (setting [4]) worked out at 0.141; in the test with RAW-Dual [1] (agonist: LPS (TLR4) 0.1 ug/mL) it was 1.66. `C=C1C2CC3(C1O)C1CC4C5(C)CCC(O)C4(C1N(CC)C5)C3CC2=O` (centres undefined) (library stock concentration (final ~1000-fold dilution): 10 mM): the “IRF Lucia reporter activity” value is 0.922 in the test on RAW-Dual [1] (setting [4]) and 1.04 in the test with RAW-Dual [1] (agonist: LPS (TLR4) 0.1 ug/mL). Take `Cl.Clc1ccc(C(OCCN2CCCCC2)c2ccccc2)cc1` (centres undefined): the “IRF Lucia reporter activity” value in the test on RAW-Dual [2] (library stock concentration (final ~1000-fold dilution): 10 mM, cytotoxicity flag (confluency mask): cytotoxic (confluency <70% of control)) came out at 1.32.

Regarding `Cl.Clc1ccc(C(OCCN2CCCCC2)c2ccccc2)cc1` (centres undefined) (library stock concentration (final ~1000-fold dilution): 10 mM), the “IRF Lucia reporter activity” value with RAW-Dual [3] (setting [4]) was 0.603; in the test on RAW-Dual [3] (agonist: LPS (TLR4) 0.1 ug/mL), 1.57. Take `Cl.Cl.c1ccc(C2CC2NC2CCNCC2)cc1` (centres undefined): the “IRF Lucia reporter activity” value in the test on RAW-Dual [2] (setting [5]) turned out to be 1.

Regarding `Cl.Cl.c1ccc(C2CC2NC2CCNCC2)cc1` (centres undefined) (library stock concentration (final ~1000-fold dilution): 10 mM), the “IRF Lucia reporter activity” value in the test with RAW-Dual [1] (setting [4]) is 0.792; in the test on RAW-Dual [1] (agonist: LPS (TLR4) 0.1 ug/mL), 1.13. For the compound `CN1C2CCC1CC(OC(=O)C(CO)c1ccccc1)C2.CN1C2CCC1CC(OC(=O)C(CO)c1ccccc1)C2.O.O=S(=O)(O)O` (centres undefined), the “IRF Lucia reporter activity” value with RAW-Dual [2] (setting [5]) turned out to be 0.941.

On to `CN1C2CCC1CC(OC(=O)C(CO)c1ccccc1)C2.CN1C2CCC1CC(OC(=O)C(CO)c1ccccc1)C2.O.O=S(=O)(O)O` (centres undefined) (library stock concentration (final ~1000-fold dilution): 10 mM), for which the results for the “IRF Lucia reporter activity” value in the test on RAW-Dual [1] (setting [4]) and with RAW-Dual [1] (agonist: LPS (TLR4) 0.1 ug/mL) were 0.993 and 0.828, respectively. On to `Br.C[N+]1([O-])C2CC(OC(=O)C(CO)c3ccccc3)CC1C1OC12.O` (centres undefined), for which the “IRF Lucia reporter activity” value in the test with RAW-Dual [2] (setting [5]) was determined as 1.11. For the compound `Br.C[N+]1([O-])C2CC(OC(=O)C(CO)c3ccccc3)CC1C1OC12.O` (centres undefined) (library stock concentration (final ~1000-fold dilution): 10 mM), the entries for the “IRF Lucia reporter activity” value in the test on RAW-Dual [1] (setting [4]) and with RAW-Dual [1] (agonist: LPS (TLR4) 0.1 ug/mL) were 1.02 and 0.995, respectively. For `BrC1C(Br)C(Br)C(Br)C(Br)C1Br` (centres undefined) (library stock concentration (final ~1000-fold dilution): 2 mM), the figures for the “IRF Lucia reporter activity” value with RAW-Dual [1] (setting [4]) and with RAW-Dual [1] (agonist: LPS (TLR4) 0.1 ug/mL) were 0.247 and 1.09, respectively. As for `BrC1C(Br)C(Br)C(Br)C(Br)C1Br` (centres undefined), the “IRF Lucia reporter activity” value in the test with RAW-Dual [2] (library stock concentration (final ~1000-fold dilution): 2 mM, cytotoxicity flag (confluency mask): not cytotoxic) amounted to 1.23.

Values taken from the supplement of paper PMC10037445.
